From publication PMC2213623 (The Journal of Cell Biology, 2008) come the findings set out here.

In this assay the target is pp32/PHAP-I (human (endogenous in HeLa), UniProt P39687 1-249). The assay is described as follows: co-IP.
Chain of UniProt P39687 (P39687 whole entry): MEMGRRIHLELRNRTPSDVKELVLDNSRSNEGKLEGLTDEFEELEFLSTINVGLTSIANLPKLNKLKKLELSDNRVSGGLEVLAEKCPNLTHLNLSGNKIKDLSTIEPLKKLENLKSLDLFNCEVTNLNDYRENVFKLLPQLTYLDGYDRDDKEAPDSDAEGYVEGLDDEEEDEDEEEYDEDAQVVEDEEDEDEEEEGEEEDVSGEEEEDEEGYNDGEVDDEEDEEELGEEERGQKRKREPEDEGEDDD

B1: GFP-HuRD226A (natural protein)
chain: not shown
For the molecule B1, the “fold change of association against GFP-wt-HuR” value came out at 4 fold.
